# About 11,000 (3.1%) of roughly 360,000 compounds were called active. The shares of active, inactive and inconclusive entries below differ from those in the screen. Calls come from the whole dose curve; as a rule, active = well fitted inhibition curve with a large enough effect; inconclusive = small, poorly fitted or top-dose-only effect; inactive = no such curve, though single readings can be large or run the other way. Potencies of inconclusive entries are left out as doubtful fits.
# Molecular target: Schistosoma mansoni thioredoxin glutathione reductase (TGR) (UniProt Q962Y6)
# Test: qHTS Assay for the Inhibitors of Schistosoma Mansoni Peroxiredoxins; note: nearly all actives have a fitted effect of over 60% in size
# Conditions: purified TGR, DTNB reduction, TNB absorbance 405 nm; series mostly up to 114 µM
# Procedure, shortened: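 First, TGR (20 nM dispensed) and NADPH were mixed with compound. Second, a 15 min room-temperature incubation followed. Third, further NADPH and then DTNB were added to start the reaction. Finally, TNB absorbance was monitored kinetically.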
# Potency is the fitted concentration of half-maximal effect; tags give direction and shape of the fitted curve.
row,SMILES,Potency
1,Cc1csc(NC(=O)CSc2nnc(-c3ccoc3C)n2Cc2ccco2)n1,"inconclusive [inhibitor, full curve]"
2,O=C(O)c1ccc(N2C(=O)CC(N3CCN(c4cccc(C(F)(F)F)c4)CC3)C2=O)cc1 (stereo not given),active: 89.1 µM
3,CCOc1cccc(-c2nc3cc(C)ccc3o2)c1,"inconclusive [inhibitor, single point]"
4,FC(F)(F)c1ccccc1NC(=S)Nc1ccccc1,"inconclusive [inhibitor, partial curve]"
5,CN(C)c1ccc(C(c2nnnn2C(C)(C)C)N2CCc3ccccc3C2)cc1 (stereo not given),active: 11.2 µM
6,O=C(NC1CCCN(c2ccc(C(F)(F)F)cn2)C1)c1cc(Cl)ccc1F (stereo not given),"inconclusive [inhibitor, single point]"
7,CCOC(=O)C1=C(CC)Nc2ccccc2N=C1NC(=O)c1cc(C)on1,inactive
8,CCOC(=O)CCS(=O)(=O)c1nc(-c2ccccc2)cc(C(F)(F)F)n1,active: 28.2 µM
9,Cc1ccc(C(=O)CCNc2cccc(Br)c2)o1,active: 56.2 µM
10,O=C(c1cc(-c2cccnc2)nc2ccc(Br)cc12)N1CCN(c2ncccn2)CC1,"inconclusive [inhibitor, full curve, poor fit]"
11,COC(=O)c1ccc(NC(=O)C2C3C=CC(O3)C2C(=O)O)cc1 (stereo not given),"inconclusive [inhibitor, single point]"
12,Oc1ccc(C=NC2CCCCC2)c(O)c1,"inconclusive [inhibitor, partial curve]"
13,Cc1ccc2nc(Cl)c3cc(C(=O)N(CCN(C)C)Cc4ccco4)sc3c2c1,"inconclusive [inhibitor, partial curve]"
14,O=[N+]([O-])c1ccc(/C=C/c2nc3ccc([N+](=O)[O-])cc3[nH]2)cc1,inactive
15,Cc1ccc(CN2C(=O)C3CCCN3c3ncccc32)cc1 (stereo not given),"inconclusive [inhibitor, partial curve]"
16,CCCOc1cc(CN2CCCCC2)cc(C(C)=O)c1,"inconclusive [inhibitor, partial curve]"
17,O=C(O)c1cccc(NC(=S)NC(=O)c2ccncc2)c1,active: 31.6 µM
18,c1ccc(CSc2ccc(-c3ccccn3)nn2)nc1,inactive
19,CC(C)(C)NS(=O)(=O)c1ccc(NC(=S)NC(=O)C2CC2)cc1,"inconclusive [inhibitor, partial curve]"
20,CCOc1ccc2nc(COC(=O)c3ccco3)c(C(C)=O)[n+]([O-])c2c1,"inconclusive [inhibitor, partial curve]"

# Source: PubChem BioAssay AID485364 (National Center for Advancing Translational Sciences (NCATS), 2010)
